Results taken from PMC2823744.
No constants are given. Whether binding was seen depends on the method and setting. For part of these data: In cells and extracts the contact can be indirect. Some entries that bind do so weakly or less than the wild type. Sequences can lack the tags named with a protein.

Sequences of proteins named here, by UniProt entry; tags and fusion partners are left off. A change or cut given only in a name is not applied to a line headed by its entry. A line that says so, or that is headed by a name, gives the form on record, which may keep a tag or linker. Residues count along the entry.
GST fused to the cytoplasmic domain of LRP1 (GST-LICD) (Q07954, residues 4445-4544): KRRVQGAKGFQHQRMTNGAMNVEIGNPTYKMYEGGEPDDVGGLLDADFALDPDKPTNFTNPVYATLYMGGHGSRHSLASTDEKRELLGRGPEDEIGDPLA

Key:
[1] = target: GAL4 DNA binding domain fused to the intracellular domain of LRP1 (pBIND-LRP1) (UniProt Q07954); test: two-hybrid; Checkmate mammalian two-hybrid (Promega) in H4 neuroglioma cells; GAL4 DNA binding domain fusions (pBIND) and VP16 fusions (pACT); firefly/Renilla luciferase ratio
[2] = target: LRP1 intracellular domain with the NPTY motif of the C1 domain mutated to NATA (GAL4 DNA binding domain fusion) (UniProt Q07954); test: as above
[3] = target: LRP1 intracellular domain with the NPVY motif of the C2 domain mutated to NAVA (GAL4 DNA binding domain fusion) (UniProt Q07954); test: as above
[4] = target: GST fused to the cytoplasmic domain of LRP1 (GST-LICD) (UniProt Q07954); test: pull-down; purified GST or GST-LRP1 cytoplasmic domain on glutathione beads incubated with 100 ug of lysate of transfected COS-7 cells; anti-V5 immunoblot; only the target purified

| Binder | binding [1] | binding [2] | binding [3] | binding [4] |
| --- | --- | --- | --- | --- |
| VP16 transactivation moiety fused to Nyggf4 (pACT-Nyggf4) (protein, UniProt Q3UBG2-1 1-217) MWQPATERLQHFQTMLKSKLNVLTLKKEPIPAVLFHEPEAIELCTTTPLMKARTHSGCKVTYLGKVSTTGMQFLSGCTEKPVIELWKKHTLAREDVFPANALLEIRPFQVWLHHLDHKGEATVHMDTFQVARIAYCTADHNVSPNIFAWVYREINDDLSYQMDCHAVQCESKLEAKKLAHAMMEAFKKTFHSMKSDGRIHRSSSSEEASQELESDDG | binds | binds | no binding |  |
| VP16 transactivation moiety fused to JIP1b (pACT-JIP1b) (protein, UniProt Q9WVI9-1 1-707) MAERESGLGGGAASPPAASPFLGLHIASPPNFRLTHDISLEEFEDEDLSEITDECGISLQCKDTLSLRPPRAGLLSAGSSGSAGSRLQAEMLQMDLIDAAGDTPGAEDDEEEEDDELAAQRPGVGPPKAESNQDPAPRSQGQGPGTGSGDTYRPKRPTTLNLFPQVPRSQDTLNNNSLGKKHSWQDRVSRSSSPLKTGEQTPPHEHICLSDELPPQGSPVPTQDRGTSTDSPCRRSAATQMAPPSGPPATAPGGRGHSHRDRIHYQADVRLEATEEIYLTPVQRPPDPAEPTSTFMPPTESRMSVSSDPDPAAYSVTAGRPHPSISEEDEGFDCLSSPERAEPPGGGWRGSLGEPPPPPRASLSSDTSALSYDSVKYTLVVDEHAQLELVSLRPCFGDYSDESDSATVYDNCASASSPYESAIGEEYEEAPQPRPPTCLSEDSTPDEPDVHFSKKFLNVFMSGRSRSSSAESFGLFSCVINGEEHEQTHRAIFRFVPRHEDELELEVDDPLLVELQAEDYWYEAYNMRTGARGVFPAYYAIEVTKEPEHMAALAKNSDWIDQFRVKFLGSVQVPYHKGNDVLCAAMQKIATTRRLTVHFNPPSSCVLEISVRGVKIGVKADDALEAKGNKCSHFFQLKNISFCGYHPKNNKYFGFITKHPADHRFACHVFVSEDSTKALAESVGRAFQQFYKQFVEYTCPTEDIYLE | binds |  |  |  |

Further lines, results first:

| binding [1] | binding [2] | binding [3] | binding [4] | Binder |
| --- | --- | --- | --- | --- |
| binds |  |  |  | VP16 transactivation moiety fused to EB-1 (pACT-EB-1) (protein, UniProt Q8BIZ1 1-1259) MGKDQELLEAARTGNVALVEKLLSGRKGGILGGGSGPLPLSNLLSIWRGPNVNCTDSSGYTALHHAALNGHKDIVLKLLQYEASTNVADNKGYFPIHLAAWKGDVEIVKILIHHGPSHSRVNEQNNENETALHCAAQYGHSEVVAVLLEELTDPTIRNSKLETPLDLAALYGRLRVVKMIISAHPNLMSCNTRKHTPLHLAARNGHKAVVQVLLEAGMDVSCQTEKGSALHEAALFGKVDVVRVLLETGIDANIKDSLGRTVLDILKEHPSQKSLQIATLLQDYLEGAGRSAAVLEEHAQEDTAQETHLSSPAESPQKTKSETVTGELSKLLDEIKLCQEKDYSFEDLCHTISDHYLDNLSKISEEELGKNGSQSVRTSSTINLSPGEVEDEEEDPNSCGPTGLWEALTPCNGCRNLGFPMLAQESYPKKRNFPMEMEPSASLDTFPSENENFLCELVDTAVTKKPCSLEIARAPSPRTDNASEVAITAPGTSHHRNSSTGPTPDCSPPSPDTALKNIVKVIRPQPKQRTSIVSSLDFQRMNHNQEYFEISTSTGCTSFTSSPAASPPTSSVETTEVKNEGAEHADDLSQQEDDEPPKEYDAGQFAGLLHGSSPACESPENPFHLYGKRNTCEDGPDEASLANSPLPFKQTPIENNPEPSVKKVKPKVVSRTIFHKRNHQLENHTIVGTRMSRSGSRNGDQWGVNPGGFVERACTLGRIRSLPKALIDMHLSKNVSKSDSDLIAYPSKDKARVNWSKSSTAERSSKDNSERTPSFTSEWEEIDKIMNSIDVGINSELEGMNGETTRPRCPVQTVGQWLESIGLPQYENHLMANGFDSVQFMGSNVMEDQDLLEIGILNSGHRQRILQAIQLLPKMRPIGHDGYHPTSVAEWLDSIELGDYTKAFLINGYTSMDLLKKIWELELINVLKISLIGHRKRILASLGDRLHDDPPQKPPRSITLREPSGNHTPPQLSPSLSQSTYTTGGSLDVPHIIMQGDARRRRNENYFDDIPRSKLERQMAQTGDWGEPSITLRPPNEATASTPVQYWQHHPEKLIFQSCDYKAFYLGSMLIKELRGTESTQDACAKMRANCRKSTEQMKKVPTIILSVSYKGVKFIDAANKNIIAEHEIRNISCAAQDPEDLSTFAYITKDLKSNHHYCHVFTAFDVNLAYEIILTLGQAFEVAYQLALQARKGGHSSTLPESFENKPSKPIPKPRVSIRKSVQIDPSEQKTLANLPWIVEPGQEAKRGINTKYETTIF |
|  |  |  | binds | NYGGF4-V5 (expressed in COS-7 cells) (protein, UniProt Q7Z2X4 1-250) MFSLPLSLPLCEDTAFLPSKCCSSHKTIKQARTLIMIFLASGTHFQTMLKSKLNVLTLKKEPLPAVIFHEPEAIELCTTTPLMKTRTHSGCKVTYLGKVSTTGMQFLSGCTEKPVIELWKKHTLAREDVFPANALLEIRPFQVWLHHLDHKGEATVHMDTFQVARIAYCTADHNVSPNIFAWVYREINDDLSYQMDCHAVECESKLEAKKLAHAMMEAFRKTFHSMKSDGRIHSNSSSEEVSQELESDDG |
